# About 18,000 (5.8%) of roughly 310,000 compounds were called active. Inconclusive means that the source gave no clear call. Such entries were picked first, then a sample of the others. Calls follow the shape of the dose curve; as a rule, active = well fitted inhibition curve with a large enough effect; inconclusive = small, poorly fitted or top-dose-only effect, or another doubt; inactive = no such curve, though single readings can be large or run the other way. Potencies of inconclusive entries are left out as doubtful fits.
# Assay: Primary qHTS for delayed death inhibitors of the malarial parasite plastid, 48 hour incubation
# Details: P. falciparum luciferase growth in erythrocytes; series mostly up to 28.7 µM
# Procedure, shortened: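 Firefly luciferase activity from engineered P. falciparum reports growth; inhibitors lower the luminescent signal. Cultures contained 2% hematocrit erythrocytes at 0.1% final parasitemia.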
# Potency is read from the fitted curve at half-maximal effect; tags tell the direction and shape of the fitted curve.
row,Structure (SMILES),Potency
1,Cc1ccc2nc(SC(C)C(=O)NC3CCCc4ccccc43)[nH]c2c1 (stereo not drawn),"inconclusive [inhibitor, single point]"
2,CC12CCC(=O)N1C(C(=O)Nc1nc(-c3cc(F)ccc3F)cs1)CS2 (stereo not drawn),"inconclusive [inhibitor, single point]"
3,O=C(c1ccccc1)N1CCCCC(Sc2nnc3ccccn23)C1=O (stereo not drawn),inactive
4,COc1ccccc1NC(=O)c1cc(S(=O)(=O)N2CCCCCC2)ccc1F,"inconclusive [inhibitor, single point]"
5,COC(=O)c1c(NC(=O)CN2CCCc3ccccc32)sc(C)c1C,"inconclusive [inhibitor, partial curve, poor fit]"
6,CC(Oc1cccc(Cl)c1)C(=O)Nc1cc(Cl)ccc1N1CCOCC1 (stereo not drawn),"inconclusive [inhibitor, full curve, poor fit]"
7,O=c1c2ccccc2nc(/C=C/c2ccccc2O)n1-c1ccccc1O,"inconclusive [inhibitor, single point]"
8,O=C1c2ccccc2CN1CCNC(=S)NC1CCCCC1,inactive
9,O=C(N/N=C/C=C/c1ccccc1[N+](=O)[O-])c1cc(-c2ccccc2)n[nH]1,"inconclusive [inhibitor, single point]"
10,CCC(=O)Oc1ccc(/C(CC)=C(\CC)c2ccc(OC(=O)CC)cc2)cc1,"inconclusive [inhibitor, partial curve, poor fit]"
11,Cc1ccc(C(C(=O)NC2CCCCC2)N(C(=O)Cc2c[nH]c3ccccc23)c2ccccc2)o1 (stereo not drawn),active: 9.28 µM
12,COc1ccc(CN2C3CCCC2CC(NC(=O)Nc2cccc(C)c2)C3)cc1 (stereo not drawn),active: 7.38 µM
13,CCOC(=O)COc1ccccc1C1Nc2ccccc2C(=O)N1c1cccc(Cl)c1 (stereo not drawn),"inconclusive [inhibitor, single point]"
14,COc1ccc(CCN2CCCn3c2nc2c3c(=O)n(CC(C)C)c(=O)n2C)cc1OC,"inconclusive [inhibitor, partial curve]"
15,CCC(=NCc1ccc2c(c1)OCO2)c1c(O)n(C2CCCCC2)c(=O)[nH]c1=O,"inconclusive [inhibitor, single point]"
16,COc1ccc(-c2n[nH]c(C)c2-c2ccc(OC)c(OC)c2)c(O)c1,active: 13.1 µM
17,CC1(C)CC(=O)C(CO)=C(c2cccc3ccccc23)C1=O,inactive
18,COc1cccc(C2=NOC(C(=O)Nc3cc(C)on3)C2)c1OC (stereo not drawn),inactive
19,O=C(COC(=O)C1(c2ccccc2)CC1)NNC(=O)c1ccccc1,inactive
20,Cc1nn(CC(=O)Nc2cc(S(=O)(=O)N3CCOCC3)ccc2Cl)c(C)c1[N+](=O)[O-],"inconclusive [inhibitor, single point]"
21,CCc1nnc(NC(=O)C2CCN(S(=O)(=O)Cc3ccccc3)CC2)s1,"inconclusive [inhibitor, single point]"
22,Cc1onc(-c2ccccc2Cl)c1C(=O)N1CCc2ccccc2C1,"inconclusive [inhibitor, partial curve, poor fit]"

row,Structure (SMILES),Potency
1,COc1cc(NC(=O)c2ccccc2)c(OC)cc1NC(=O)CN1C(=O)NC2(CCCCC2)C1=O,"inconclusive [inhibitor, single point]"
2,COc1ccc(S(=O)(=O)N(CC(=O)N2CCCCCC2)c2ccccc2OC)cc1,"inconclusive [inhibitor, partial curve, poor fit]"
3,CC(C)(C)C(=O)Cn1c(=N)n(Cc2ccccc2)c2ccccc21,active: 13.1 µM
4,COc1ccc(N(CC(=O)Nc2ccc3c(c2)OCO3)S(=O)(=O)c2ccccc2)c(OC)c1,"inconclusive [inhibitor, partial curve, poor fit]"
5,COc1ccc(Cn2nnnc2C(C(C)C)N2CCN(c3ccccc3OC)CC2)cc1 (stereo not drawn),active: 4.65 µM
6,O=C(C1CCCN(S(=O)(=O)c2ccc(Br)s2)C1)N1CCN(c2ccccc2)CC1 (stereo not drawn),active: 8.28 µM
7,Cc1c(C)n(C)c2ccc(C(=O)NCCCN3CCN(c4ccc(F)cc4)CC3)cc12,"inconclusive [inhibitor, single point]"
8,C=CCN(C(=O)Cn1nnc2ccccc21)C(C(=O)NCCOC)c1ccc(OC)cc1OC (stereo not drawn),"inconclusive [inhibitor, partial curve, poor fit]"
9,Cc1ccc(C)c(NC(=O)c2ccccc2C(=O)c2ccccc2)c1,"inconclusive [inhibitor, partial curve, poor fit]"
10,CCCn1c(CC)nc([N+](=O)[O-])c1Sc1ccc(C)cc1,"inconclusive [inhibitor, single point]"
11,Cc1c(C(=O)OC2CCCC2)[nH]c2c1C(=O)CC(c1ccco1)C2 (stereo not drawn),active: 7.38 µM
12,COCCCNC(=O)c1ccc2c(=O)n(Cc3ccc(OC)cc3)c(=O)[nH]c2c1,inactive
13,CCOC(=O)C1(Cc2ccccc2)CCCN(C2CCCC2)C1 (stereo not drawn),inactive
14,CC(C)CNC(=O)c1cccc2c1-c1ccccc1C2=O,inactive
15,O=C(N/N=C(\CC(=O)c1cccs1)C(F)(F)F)c1cccnc1,"inconclusive [inhibitor, partial curve, poor fit]"
16,COc1cc([N+](=O)[O-])ccc1NC(=S)NC(=O)CC(C)(C)C,inactive
17,O=C(CNC(=O)c1ccc(OC(F)F)cc1)Nc1cccc(S(=O)(=O)N2CCCC2)c1,"inconclusive [inhibitor, partial curve, poor fit]"
18,COc1ccc(OC)c(CN2CCN(C(=O)CCC(=O)c3cccs3)CC2)c1,"inconclusive [inhibitor, single point]"
19,Cc1cccc(C)c1NC(=O)CNC(=O)C(C)N1CCN(c2cccc(Cl)c2)CC1 (stereo not drawn),"inconclusive [inhibitor, partial curve, poor fit]"
20,Cc1ccc(S(=O)(=O)N2CCC(C(=O)Nc3ccccc3N3CCCC3)CC2)c(C)c1,active: 9.28 µM
21,Cc1ccc(C(=O)CSC2=C(C#N)C(c3ccco3)C3=C(CCCC3=O)N2)cc1 (stereo not drawn),"inconclusive [inhibitor, partial curve, poor fit]"
